# Only a part is listed here, and it is no random draw. The list includes weakly bound sequences.
# Legend:
# GST-Co-NF-kB = biological target: T1, GST-Co-NF-kB (UniProt F1ARL5); assay: protein-binding microarray (PBM); details: PBM: ~300 nM protein, 6 mM HEPES pH 7.8, 80 mM KCl, 0.5 mM EDTA, 0.5 mM EGTA, 6% glycerol, 35 ng/ul poly-dIdC, 1% milk, 1 h, room temperature; high values mean tight binding; double strand, one strand shown
# T1 sequence: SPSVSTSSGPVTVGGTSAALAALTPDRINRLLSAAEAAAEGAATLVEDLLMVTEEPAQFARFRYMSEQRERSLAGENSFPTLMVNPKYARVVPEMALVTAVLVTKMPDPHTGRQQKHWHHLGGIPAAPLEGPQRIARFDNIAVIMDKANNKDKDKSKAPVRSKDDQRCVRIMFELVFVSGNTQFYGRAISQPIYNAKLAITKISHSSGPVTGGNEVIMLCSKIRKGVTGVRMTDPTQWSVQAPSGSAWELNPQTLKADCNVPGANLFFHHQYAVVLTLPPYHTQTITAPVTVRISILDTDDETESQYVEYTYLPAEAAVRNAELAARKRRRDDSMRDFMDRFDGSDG
# GST-Dm-Relish = biological target: T2, GST-Dm-Relish (UniProt Q94527); assay: protein-binding microarray (PBM); details: PBM: ~300 nM protein, 6 mM HEPES pH 7.8, 80 mM KCl, 0.5 mM EDTA, 0.5 mM EGTA, 6% glycerol, 35 ng/ul poly-dIdC, 1% milk, 1 h, room temperature; Ap Aiptasia and Nv Nematostella (sea anemones) / Co Capsaspora / Aq Amphimedon (sponge) / Dm Drosophila / Hu human; RHD is the Rel homology domain; high values mean tight binding; most listed sequences are background and not binding sites; double strand, one strand shown
# T2 sequence: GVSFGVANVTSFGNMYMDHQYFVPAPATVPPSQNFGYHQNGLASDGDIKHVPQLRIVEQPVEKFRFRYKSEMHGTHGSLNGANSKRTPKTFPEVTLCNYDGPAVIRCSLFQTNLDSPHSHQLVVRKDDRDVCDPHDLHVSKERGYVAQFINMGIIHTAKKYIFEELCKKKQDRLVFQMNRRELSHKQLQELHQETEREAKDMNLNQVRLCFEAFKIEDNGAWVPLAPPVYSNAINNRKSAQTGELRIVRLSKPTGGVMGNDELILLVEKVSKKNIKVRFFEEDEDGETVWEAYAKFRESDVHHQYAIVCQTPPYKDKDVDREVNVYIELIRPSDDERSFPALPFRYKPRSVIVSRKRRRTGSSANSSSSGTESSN
Sequence,binding signal (GST-Co-NF-kB) [z-score],binding signal (GST-Dm-Relish) [z-score]
CCGATTAACATCAACAATTCCCCTGATGTTAATCGGGTCTTGATTCGCTTGACGCTGCTG,7.14,5.11
CCGATTAACATCAATATTTCCCATGATGTTAATCGGGTCTTGATTCGCTTGACGCTGCTG,5.1,1.61
CCGATTAACATCAGGTAATTTTATGATGTTAATCGGGTCTTGATTCGCTTGACGCTGCTG,0.641,3.58
CCGATTAACATCAGGGGAAGAACTGATGTTAATCGGGTCTTGATTCGCTTGACGCTGCTG,6.9,9.56
CCGATTAACATCAGGGGTAACACTGATGTTAATCGGGTCTTGATTCGCTTGACGCTGCTG,4.28,0.872
CCGATTAACATCAGTTGTCCCGCTGATGTTAATCGGGTCTTGATTCGCTTGACGCTGCTG,0.719,0.222
CCGATTAACATCAGGGGATTGTATGATGTTAATCGGGTCTTGATTCGCTTGACGCTGCTG,3.04,4.19
CCGATTAACATCAAGGGACTTTCTGATGTTAATCGGGTCTTGATTCGCTTGACGCTGCTG,0.991,7.3
CCGATTAACATCATAGTCCCATGTGATGTTAATCGGGTCTTGATTCGCTTGACGCTGCTG,-0.199,0.684
CCGATTAACATCAGGGGGAAACATGATGTTAATCGGGTCTTGATTCGCTTGACGCTGCTG,10.9,3.99
CCGATTAACATCACATAATCCCCTGATGTTAATCGGGTCTTGATTCGCTTGACGCTGCTG,3.86,6.27
CCGATTAACATCAACTTTTTCCCTGATGTTAATCGGGTCTTGATTCGCTTGACGCTGCTG,5.52,0.821
CCGATTAACATCACTATACCCCCTGATGTTAATCGGGTCTTGATTCGCTTGACGCTGCTG,4.36,2.21
CCGATTAACATCAAAGTTCCCCCTGATGTTAATCGGGTCTTGATTCGCTTGACGCTGCTG,11.3,8.65
CCGATTAACATCACCCCGCCCCCTGATGTTAATCGGGTCTTGATTCGCTTGACGCTGCTG,3.91,4.16
CCGATTAACATCAGGGACCGCCCTGATGTTAATCGGGTCTTGATTCGCTTGACGCTGCTG,0.508,1.91

Sequence,binding signal (GST-Co-NF-kB) [z-score],binding signal (GST-Dm-Relish) [z-score]
CCGATTAACATCACCAGTTTCCCTGATGTTAATCGGGTCTTGATTCGCTTGACGCTGCTG,3.09,0.665
CCGATTAACATCAGCAAATCCCCTGATGTTAATCGGGTCTTGATTCGCTTGACGCTGCTG,2.93,5.54
CCGATTAACATCAGATATTACCCTGATGTTAATCGGGTCTTGATTCGCTTGACGCTGCTG,2.75,0.961
CCGATTAACATCAGGGGGCTTTATGATGTTAATCGGGTCTTGATTCGCTTGACGCTGCTG,1.85,6.23
CCGATTAACATCAGGGGGGAATATGATGTTAATCGGGTCTTGATTCGCTTGACGCTGCTG,10.2,5.21
CCGATTAACATCAGGGGGGGAGATGATGTTAATCGGGTCTTGATTCGCTTGACGCTGCTG,8.63,3.66
CCGATTAACATCAAGGGCTTCCCTGATGTTAATCGGGTCTTGATTCGCTTGACGCTGCTG,0.641,7.18
CCGATTAACATCATTGTCCCTTCTGATGTTAATCGGGTCTTGATTCGCTTGACGCTGCTG,0.55,0.202
CCGATTAACATCAAGGGGGGGATTGATGTTAATCGGGTCTTGATTCGCTTGACGCTGCTG,4.35,5.64
CCGATTAACATCAATATTTTCCCTGATGTTAATCGGGTCTTGATTCGCTTGACGCTGCTG,6.01,2.69
CCGATTAACATCAGTATTCCCCATGATGTTAATCGGGTCTTGATTCGCTTGACGCTGCTG,7.15,4.54
CCGATTAACATCAAAGCTTTCCCTGATGTTAATCGGGTCTTGATTCGCTTGACGCTGCTG,3.59,1.47
CCGATTAACATCAGGGAATCACCTGATGTTAATCGGGTCTTGATTCGCTTGACGCTGCTG,2.45,10.3
CCGATTAACATCAGCACTCCCCCTGATGTTAATCGGGTCTTGATTCGCTTGACGCTGCTG,3.89,2.23
CCGATTAACATCACCTCTTTCCCTGATGTTAATCGGGTCTTGATTCGCTTGACGCTGCTG,3.61,0.514
